# From the supplement of paper PMC8728848
# The other results are listed elsewhere or left out.
# Assays:
# Assay in all cases: glycan array binding signal (z-score within array); higher = stronger binding
# Conditions in all cases: glycan notation: IUPAC condensed, linker removed
# [1] = biological target: GalNAc(b1-3)Gal
# In short: (§1)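 Negative Z-scores can be read as non-binding. The Z-score is calculated within each array and then averaged across arrays of one protein sequence at different concentrations or buffers and across linkers. Arrays, 3228 in all, were curated from the Consortium for Functional Glycomics database and kept only where the protein sequence was available.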
# [2] = biological target: GalNAc(b1-3)Gal(a1-4)Gal(b1-4)GlcNAc
# In short: as §1
# [3] = biological target: GalNAc(b1-3)Gal(a1-4)Gal(b1-4)GlcNAc(b1-3)Gal(b1-4)Glc
# In short: as §1
# [4] = biological target: GalNAc(b1-3)Gal(a1-6)Gal(b1-4)Glc
# In short: as §1
# [5] = biological target: GalNAc(b1-3)GalNAc
# In short: as §1
# [6] = biological target: GalNAc(b1-3)GlcNAc
# In short: as §1
# [7] = biological target: GalNAc(b1-4)Gal(b1-4)Glc
# In short: as §1
# [8] = biological target: GalNAc(b1-4)GlcNAc
# In short: as §1
# [9] = biological target: GalNAc(b1-4)GlcNAc(b1-2)Man
# In short: as §1
# [10] = biological target: GalNAc(b1-4)GlcNAc(b1-2)Man(a1-3)[GalNAc(b1-4)GlcNAc(b1-2)Man(a1-6)]Man(b1-4)GlcNAc(b1-4)GlcNAc
# In short: as §1
# [11] = biological target: GalNAc(b1-4)GlcNAc(b1-3)GalNAc(b1-4)GlcNAc
# In short: as §1
# [12] = biological target: GalNAc(b1-4)GlcNAc6S
# In short: as §1
# [13] = biological target: GalNAc(b1-6)GalNAc
# In short: as §1
# [14] = biological target: GalNAc3S(b1-4)GlcNAc
# In short: as §1
# [15] = biological target: GalNAc3S(b1-4)GlcNAc3S
# In short: as §1
# [16] = biological target: GalNAc3S(b1-4)[Fuc(a1-3)]GlcNAc
# In short: as §1
# [17] = biological target: GalNAc4S6S(b1-4)GlcNAc
# In short: as §1
# [18] = biological target: GalNAc6S(b1-4)GlcNAc
# In short: as §1
# [19] = biological target: Glc(a1-4)Glc
# In short: as §1
# [20] = biological target: Glc(a1-4)Glc(a1-4)Glc(a1-4)Glc
# In short: as §1
# [21] = biological target: Glc(a1-6)Glc(a1-6)Glc
# In short: as §1
# [22] = biological target: Glc(a1-6)Glc(a1-6)Glc(a1-6)Glc
# In short: as §1
# [23] = biological target: Glc(b1-4)Glc
# In short: as §1
# [24] = biological target: Glc(b1-6)Glc
# In short: as §1
# [25] = biological target: GlcA(b1-3)Gal
# In short: as §1
# [26] = biological target: GlcA(b1-3)GlcNAc
# In short: as §1
# [27] = biological target: GlcA(b1-6)Gal
# In short: as §1
# [28] = biological target: GlcA3S(b1-3)Gal(b1-4)GlcNAc(b1-2)Man
# In short: as §1
# [29] = biological target: GlcA3S(b1-3)Gal(b1-4)GlcNAc(b1-3)Gal(b1-4)Glc
# In short: as §1
# [30] = biological target: GlcNAc(a1-3)Gal(b1-4)GlcNAc
# In short: as §1
# [31] = biological target: GlcNAc(a1-4)Gal(b1-3)GlcNAc
# In short: as §1
# [32] = biological target: GlcNAc(a1-4)Gal(b1-4)GalNAc
# In short: as §1
# [33] = biological target: GlcNAc(a1-4)Gal(b1-4)GlcNAc
# In short: as §1
# [34] = biological target: GlcNAc(a1-4)Gal(b1-4)GlcNAc(b1-3)Gal(b1-4)Glc
# In short: as §1
# [35] = biological target: GlcNAc(a1-4)Gal(b1-4)GlcNAc(b1-3)Gal(b1-4)GlcNAc
# In short: as §1
# [36] = biological target: GlcNAc(a1-4)Gal(b1-4)GlcNAc(b1-3)Gal(b1-4)GlcNAc(b1-3)Gal(b1-4)GlcNAc
# In short: as §1
# [37] = biological target: GlcNAc(a1-4)Gal(b1-4)GlcNAc(b1-3)Gal(b1-4)[Fuc(a1-3)]GlcNAc(b1-3)Gal(b1-4)[Fuc(a1-3)]GlcNAc
# In short: as §1
# [38] = biological target: GlcNAc(a1-6)Gal(b1-4)GlcNAc
# In short: as §1
binder,measurement,setting,value
Cohesin-marm-DC-ASGPR-CRD (protein) LDITSHHHHHHDDLDAVRIKVDTVNAKPGDTVRIPVRFSGIPSKGIANCDFVYSYDPNVLEIIEIEPGDIIVDPNPDKSFDTAVYPDRKIIVFLFAEDSGTGAYAITKDGVFATIVAKVKEGAPNGLSVIKFVEVGGFANNDLVEQKTQFFDGGVNVGDTTEPATPTTPVTTPTTTDDLDAASCPINWVEHQGSCYWFSRSGKTWPEAERYCQLENTHLVVINSREEQNFVQAHLGSAYTWMGLSDPEGVWKWVDGTDYSSGFQNWKPGQPDDWQGHGLGGGEDCAHFHPDGRWNDDVCQRSYHWVCEAGLTQASQDSH,glycan array binding signal (z-score),[1],2.73
same,glycan array binding signal (z-score),[2],2.53
same,glycan array binding signal (z-score),[3],2.61
same,glycan array binding signal (z-score),[4],2.53
same,glycan array binding signal (z-score),[5],-0.393
same,glycan array binding signal (z-score),[6],2.86
same,glycan array binding signal (z-score),[7],-0.246
same,glycan array binding signal (z-score),[8],2.74
same,glycan array binding signal (z-score),[9],2.63
same,glycan array binding signal (z-score),[10],2.7
same,glycan array binding signal (z-score),[11],2.39
same,glycan array binding signal (z-score),[12],2.79
same,glycan array binding signal (z-score),[13],-0.458
same,glycan array binding signal (z-score),[14],-0.449
same,glycan array binding signal (z-score),[15],-0.445
same,glycan array binding signal (z-score),[16],-0.372
same,glycan array binding signal (z-score),[17],-0.44
same,glycan array binding signal (z-score),[18],3
same,glycan array binding signal (z-score),[19],-0.324
same,glycan array binding signal (z-score),[20],-0.419
same,glycan array binding signal (z-score),[21],-0.428
same,glycan array binding signal (z-score),[22],-0.438
same,glycan array binding signal (z-score),[23],-0.381
same,glycan array binding signal (z-score),[24],-0.337
same,glycan array binding signal (z-score),[25],-0.438
same,glycan array binding signal (z-score),[26],-0.411
same,glycan array binding signal (z-score),[27],-0.392
same,glycan array binding signal (z-score),[28],-0.452
same,glycan array binding signal (z-score),[29],-0.459
same,glycan array binding signal (z-score),[30],-0.452
same,glycan array binding signal (z-score),[31],-0.446
same,glycan array binding signal (z-score),[32],-0.441
same,glycan array binding signal (z-score),[33],-0.446
same,glycan array binding signal (z-score),[34],-0.446
same,glycan array binding signal (z-score),[35],-0.441
same,glycan array binding signal (z-score),[36],-0.453
same,glycan array binding signal (z-score),[37],-0.371
same,glycan array binding signal (z-score),[38],-0.429
